Experimental findings from PMC4336329 (PLoS ONE, 2015) are described below.

Hit rate of the full screen: of about 310,000 compounds, about 14,000 (4.5%) showed an effect of 50% or more. Effects have a minus sign here. The list shows a part of the results.
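Further: peak tail current of the secondary pulse compared with the same well before compound.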

Chain of human ether-à-go-go-related gene (hERG) potassium channel (Q12809 whole entry, looked up): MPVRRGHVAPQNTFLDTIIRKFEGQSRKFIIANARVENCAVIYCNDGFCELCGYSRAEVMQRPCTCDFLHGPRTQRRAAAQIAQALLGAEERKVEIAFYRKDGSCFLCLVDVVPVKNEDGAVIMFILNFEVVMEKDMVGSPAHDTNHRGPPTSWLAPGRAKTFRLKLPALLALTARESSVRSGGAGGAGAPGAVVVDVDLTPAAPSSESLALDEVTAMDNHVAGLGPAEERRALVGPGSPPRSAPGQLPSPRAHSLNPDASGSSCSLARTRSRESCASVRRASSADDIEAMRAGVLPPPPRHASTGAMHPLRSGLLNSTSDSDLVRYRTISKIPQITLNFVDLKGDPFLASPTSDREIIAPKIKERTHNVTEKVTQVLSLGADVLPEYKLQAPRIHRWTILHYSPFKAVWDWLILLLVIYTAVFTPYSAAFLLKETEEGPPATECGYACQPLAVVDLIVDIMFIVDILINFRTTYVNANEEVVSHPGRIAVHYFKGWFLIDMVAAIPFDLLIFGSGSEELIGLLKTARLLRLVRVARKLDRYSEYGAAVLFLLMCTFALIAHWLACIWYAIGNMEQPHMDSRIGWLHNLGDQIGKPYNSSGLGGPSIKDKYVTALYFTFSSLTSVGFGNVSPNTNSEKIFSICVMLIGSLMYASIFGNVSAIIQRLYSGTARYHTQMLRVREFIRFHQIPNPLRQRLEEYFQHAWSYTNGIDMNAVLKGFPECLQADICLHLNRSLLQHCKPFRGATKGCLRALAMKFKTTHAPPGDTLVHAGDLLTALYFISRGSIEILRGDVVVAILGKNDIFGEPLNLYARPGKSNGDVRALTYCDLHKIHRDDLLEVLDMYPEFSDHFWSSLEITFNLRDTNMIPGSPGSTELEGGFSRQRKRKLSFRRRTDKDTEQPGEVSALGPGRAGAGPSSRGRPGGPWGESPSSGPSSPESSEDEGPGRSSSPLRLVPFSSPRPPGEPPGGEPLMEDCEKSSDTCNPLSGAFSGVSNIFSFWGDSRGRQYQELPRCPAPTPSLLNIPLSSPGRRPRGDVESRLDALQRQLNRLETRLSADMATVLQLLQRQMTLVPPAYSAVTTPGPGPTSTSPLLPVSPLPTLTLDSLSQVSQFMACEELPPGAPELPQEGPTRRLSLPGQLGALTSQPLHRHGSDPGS

This experiment addresses human ether-à-go-go-related gene (hERG) potassium channel (human, UniProt Q12809). The experiment in a line: primary screen, population patch clamp on CHO cells stably expressing hERG.
`N/C(=N\O)c1ccccc1-n1cccc1`: the “hERG current change (%, negative = inhibition) at 10uM” value came out at 25.7%.
The value for `O=c1[nH]c([N+](=O)[O-])nn1C(c1ccccc1)c1ccccc1` was -13.7%; that for `CC1(C)Cc2nc(Cl)c(C(N)=O)cc2CO1` was -2.25%.
With `O=C(O)COc1ccc(/C=C/C(=O)c2ccc(C3CCCCC3)cc2)cc1`, the “hERG current change (%, negative = inhibition) at 10uM” value came out at 18.2%.
As for `COc1ccccc1CN1CC(C(=O)NCCC2=CCCCC2)CCC1=O` (centres unmarked), the “hERG current change (%, negative = inhibition) at 10uM” value is on record as -3.06%.
The value for `C/C(=C/c1oc2ccc(O)cc2c1[N+](=O)[O-])N(C)C` was -6.14%; that for `CCOC(=O)c1oc2ccccc2c1NC(=O)c1ccc(S(=O)(=O)N2CCCC2)cc1` was -8.98%; that for `CC(NC(=O)c1ccc(F)cc1)c1ccc2c(c1)CCCC2` (centres unmarked) was 11%.
The value for `CCn1c(CCC(=O)N(C)CC(=O)Nc2cccc(F)c2)nc2cc(S(=O)(=O)N(C)C)ccc21` was -19.3%; that for `COc1ccccc1NC(=S)NC(=O)c1ccc(-c2ccc(Cl)cc2)o1` was 5.2%; that for `O=C(CCn1cccn1)N1CCCC(N2CCN(c3cccc(C(F)(F)F)c3)CC2)C1` (centres unmarked) was -53.6%.
The value for `O=C(NCc1ccccn1)Nc1cc(Cl)ccc1Cl` was -16.9%; that for `Cn1c(CCNC(=O)C(C)(C)C)nc2ccccc21` was 16.4%.
In the case of `O=C(COC(=O)Cc1ccccc1)NC12CC3CC(CC(C3)C1)C2`, the “hERG current change (%, negative = inhibition) at 10uM” value stood at 4.91%.
As to `Cn1nc([N+](=O)[O-])nc1Sc1nnnn1-c1ccc(C(=O)O)cc1`, the “hERG current change (%, negative = inhibition) at 10uM” value was determined as 20.4%.
Turning to `Cn1c(=O)cc(SCC(=O)NCCCN2CCN(c3ccccc3F)CC2)c2ccccc21`, the “hERG current change (%, negative = inhibition) at 10uM” value was -55.5%.
On to `COc1ccccc1CNC(=O)c1nnc(Cc2ccc(Cl)cc2)o1`, for which the “hERG current change (%, negative = inhibition) at 10uM” value came out at 9.83%.
The value for `C/C=C(\C)C(=O)Nc1cccc(C2=NOC3(C2)C[C@@H](C(N)=O)N(C(=O)c2ccccc2C(=O)c2ccccc2)C3)c1` (some centres unmarked) was 3.06%; that for `CCCSc1nnc(NC(=O)c2nc(SC)ncc2Cl)s1` was -9.02%; that for `O=C(CCC1CCCCC1)Nc1ncn[nH]1` was -1.93%.
The value for `O=C(Nc1cccc(Cl)c1)Nc1csc([N+](=O)[O-])c1` was 17.6%; that for `CCOC(=O)C1=C(C)NC(=S)NC1c1ccco1` (centres unmarked) was 14.7%.
With `O=C(NC1CCCCC1)c1ccc(CNc2ccccc2)o1`, the “hERG current change (%, negative = inhibition) at 10uM” value is listed as -9.19%.
The value for `C=CCn1c(N)c(C(=O)OCCC)c2nc3ccccc3nc21` was -33%.
The value for `C[C@@H](NC(=O)[C@@H]1Cc2ccccc2CN1)C(=O)NC1CCCCC1` was 15.2%; that for `O=C(CN1C(=O)S/C(=C\c2ccc(F)cc2)C1=O)NCCCn1ccnc1` was -58.9%; that for `CC(C)(C)c1ccc(/C=C/C(=O)c2ccc(NC3=NCCCS3)cc2)cc1` was -10%.
As for `O=C(CNC(=O)c1ccccc1)OCc1nnc(-c2ccccc2)o1`, the “hERG current change (%, negative = inhibition) at 10uM” value is -7.65%.
As to `CCOC(=O)c1c(C)[nH]c(C)c1S(=O)(=O)N1CCCCC1`, the “hERG current change (%, negative = inhibition) at 10uM” value worked out at 15.9%.
The value for `Cc1ccccc1NC(=O)/C(C#N)=C\c1ccsc1` was 11.5%.
The value for `O=C1CCN(Cc2ccccc2)CCN1[C@H](CSc1ccccc1)Cc1ccccc1` was -72.1%.
For the compound `CCOC(=O)N1CCN(C(=O)COCc2cc(-c3ccc4c(c3)OCO4)on2)CC1`, the “hERG current change (%, negative = inhibition) at 10uM” value is on record as -7.91%.
The value for `O=C(Cn1cc(S(=O)(=O)Cc2cccc([N+](=O)[O-])c2)c2ccccc21)N1CCOCC1` was -30.9%; that for `COc1cccc(CN2CC(C(=O)NCCN3CCOCC3)CCC2=O)c1` (centres unmarked) was 10%; that for `Cc1cccc(CSCCNC(=S)Nc2ccccc2)c1` was 11.2%.
In the case of `CC1CCc2nc(N)c(C#N)c(-c3cccnc3)c2C1` (centres unmarked), the “hERG current change (%, negative = inhibition) at 10uM” value is recorded as -19.3%.
The value for `Nc1nnc(N2CCc3ccccc32)s1` was 8.34%; that for `O=C(COC(=O)/C=C/c1cccs1)NC(=O)Cc1ccccc1` was -5.24%.
The value for `COc1ccc(N(CC(=O)NC2CCCC2)C(=O)CCC(=O)Nc2cc(C)on2)cc1` was -4.44%.
As for `Cc1cccc(NC(=O)c2sc3nc4c(c(-c5ccco5)c3c2N)CCC4)c1`, the “hERG current change (%, negative = inhibition) at 10uM” value is -3.19%.
On to `COc1ccc(NC(=O)c2cc3cc(C)ccc3n2C)c(OC)c1`, for which the “hERG current change (%, negative = inhibition) at 10uM” value is recorded as 5.55%.
For the compound `Cc1ccc(-c2cc(C(=O)NCCc3ccccn3)c3ccccc3n2)c(C)c1`, the “hERG current change (%, negative = inhibition) at 10uM” value is -51.1%.
`CCCCn1c(NS(=O)(=O)c2ccccc2)c(C(=O)OCC)c2nc3ccccc3nc21`: the “hERG current change (%, negative = inhibition) at 10uM” value is -23.9%.
The value for `COc1ccc(CCNC(=O)C2CCN(S(=O)(=O)c3cccc4cccnc34)CC2)cc1OC` was 12.1%.
The value for `Cc1noc(NS(=O)(=O)c2ccc(NC(=O)CSc3n[nH]c(-c4ccccc4)n3)cc2)c1C` was 12.7%; that for `CCN(CCCNC(=O)CCn1c(=O)[nH]c2ccccc2c1=O)c1cccc(C)c1` was 0.649%; that for `Cc1ccc2[nH]c(CCN(C)C)c(CC#N)c2c1` was -44.7%.
The value for `CCCCNC(=O)c1ccc(NC(=O)CC2SC(N3CCCC3)=NC2=O)cc1` (centres unmarked) was 11.8%; that for `Cc1cc(C)nc(SCc2ccc(Cl)cc2)n1` was 8.23%; that for `O=C(Nc1ccccc1Cl)N1CCN(Cc2ccc3c(c2)OCO3)CC1` was 8.37%.
As for `COc1ccc2sc(N(CCN(C)C)C(=O)c3cc(Cl)sc3Cl)nc2c1.Cl`, the “hERG current change (%, negative = inhibition) at 10uM” value is on record as -0.167%.
Turning to `O=S(=O)(c1ccc(-c2ccccc2)cc1)N1CCOCC1`, the “hERG current change (%, negative = inhibition) at 10uM” value stood at 7.64%.
The value for `CC(=O)Nc1cc(C(=O)N2CCc3ccccc3C2)ccc1Sc1ccc(Cl)cc1` was -45%.
The value for `COc1ccc(C(=O)N/N=C(\C)CC(=O)N2CCN(C=O)CC2)cc1` was 19%; that for `C/C(CC(=O)Nc1ccc2c(c1)OCCO2)=N\NC(=O)COc1cccc(C)c1` was -6.02%.
The value for `Nc1nonc1-n1nnc(C(=O)N/N=C/c2c(Cl)cccc2Cl)c1CSC1=NCCS1` was 6.81%.
Take `Cc1cccc(-n2c(=O)[nH]c3c(C(N)=O)nc(CC(C)C)nc32)c1`: the “hERG current change (%, negative = inhibition) at 10uM” value is 2.66%.
The value for `Cc1ccc(S(=O)(=O)Nc2cc(C(=O)O)ccc2N2CCCCC2)cc1` was 9.4%; that for `CCCCCOc1ccc(C(=O)CCC(=O)N2CCCC2)cc1` was -9.69%; that for `Cc1nn(C(=O)c2cccc([N+](=O)[O-])c2)c(C)c1Sc1ccccc1` was 7.61%.
The value for `CC(C)CNC(=S)NNC(=O)c1csc2ccccc12` was 12%.
The value for `O=S(=O)(c1ccccc1)N1CCN(c2ncnc3scc(-c4ccccc4)c23)CC1` was 13.2%; that for `COc1ccc(-c2cn(-c3ccccc3)nc2CO)cc1` was -1.37%.
In the case of `Cc1nc(N2CCN(c3ccccn3)CC2)c2c(C)c(C(=O)Nc3c(C)cc(Br)cc3C)sc2n1`, the “hERG current change (%, negative = inhibition) at 10uM” value is given as 18.4%.
The value for `O=C(NC(=S)NC1C2CC3CC(C2)CC1C3)C12CC3CC(CC(C3)C1)C2` (centres unmarked) was -1.16%; that for `COC(=O)c1ccc(COc2c(F)c(F)cc(F)c2F)o1` was 11.7%; that for `COc1ccc(C(=O)NC2CC3CCCC(C2)N3Cc2ccccc2)cc1` (centres unmarked) was -53.5%.
The value for `CN(C)CCNC(=O)c1ccc(COc2ccc(Cl)cc2Cl)cc1` was -47.1%; that for `O=C(NCc1ccccn1)C(=O)Nc1nc(C23CC4CC(CC(C4)C2)C3)cs1` was 7.23%; that for `CC(=O)Oc1ccc(N2C(=O)C3C4C=CC(CO)(O4)C3C2=O)cc1` (centres unmarked) was 11.3%.
In the case of `CCOC(=O)N1CCN(CC(O)COc2ccccc2[N+](=O)[O-])CC1.Cl` (centres unmarked), the “hERG current change (%, negative = inhibition) at 10uM” value is on record as -0.882%.
The value for `CCn1cc(Br)c(C(=O)Nc2sc3c(c2C(N)=O)CCCC3)n1` was -2.64%; that for `O=C(Nc1cc([N+](=O)[O-])ccc1O)c1cccc(NC(=O)c2ccco2)c1` was 7.72%.
For the compound `Cc1cc(N2CCCCC2)nc(-c2ccc(Br)cc2)n1`, the “hERG current change (%, negative = inhibition) at 10uM” value is recorded as 8.81%.
For the compound `Cc1ccc(C(=O)c2coc3c2C(=O)C(=O)c2ccccc2-3)cc1`, the “hERG current change (%, negative = inhibition) at 10uM” value was 13.6%.
The value for `COc1cc(=O)n(C)c2ccccc12` was -4.88%; that for `COCCn1c(=NC(=O)c2ccccc2[N+](=O)[O-])sc2cc(S(C)(=O)=O)ccc21` was -20.3%; that for `Cc1ccc(NC(=O)CN2CCN(C(=O)c3ccco3)CC2)cc1` was -3.01%.
The value for `CC(C)(C)N1CC(C(=O)Nc2ccc(C#N)cc2)CC1=O` (centres unmarked) was 11.6%; that for `Cl.O=c1[nH]c(CN2CCCCC2)nc2ccccc12` was 2.88%.
The value for `C(=N/n1c2ccccc2c2ccccc21)/c1ccco1` was 20.4%.
In the case of `Cc1cc(C(C)(C)C)ccc1OCCN1CCCC1`, the “hERG current change (%, negative = inhibition) at 10uM” value is recorded as -47.1%.
Turning to `CN(C)c1nc2n(c(=O)n1)CCS2`, the “hERG current change (%, negative = inhibition) at 10uM” value worked out at 24.8%.
As for `CCc1noc(C)c1C(=O)N1CCN(S(=O)(=O)c2ccc(C)cc2C)CC1`, the “hERG current change (%, negative = inhibition) at 10uM” value is listed as -11.1%.
Consider `COc1ccc(Cl)cc1N=Cc1c(O)n(C)c(=O)n(C)c1=O`, for which the “hERG current change (%, negative = inhibition) at 10uM” value came to 6.01%.
As to `CCSc1nc2c(c(=O)[nH]1)C(c1cccnc1)C(C(=O)OC(C)C)=C(C)N2` (centres unmarked), the “hERG current change (%, negative = inhibition) at 10uM” value is -14.1%.
The value for `N#Cc1c(C(F)(F)F)cc(-c2cccs2)nc1SC(C(=O)O)c1ccccc1` (centres unmarked) was 14.7%.
The value for `O=C(N/N=C/c1cccnc1)c1cc2c(ccc3ccccc32)o1` was 13.7%; that for `COc1ccc(NC(=O)CN2C(=O)CSC2=O)cc1` was 16.8%.
